Measurements taken from patent EP4592315A1 (Biotheus Inc., dated 2024).

Biological target: T1, human 4-1BB (human, UniProt Q07011 24-255)
T1 construct: whole, on cells; also called h4-1BB; CD137
Assay: flow cytometry on CHOS-h4-1BB cells (overexpressing human 4-1BB), anti-human IgG-Fc PE

Sequence of human 4-1BB (Q07011 24-255): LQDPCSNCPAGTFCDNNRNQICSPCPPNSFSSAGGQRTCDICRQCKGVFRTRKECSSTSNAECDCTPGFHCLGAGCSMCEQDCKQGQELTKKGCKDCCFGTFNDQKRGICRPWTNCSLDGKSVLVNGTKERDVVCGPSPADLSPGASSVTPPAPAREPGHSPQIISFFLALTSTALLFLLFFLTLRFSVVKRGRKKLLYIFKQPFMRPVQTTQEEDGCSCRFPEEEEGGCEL

EC50: 10.9 nM
B1: HER2x4-1BB-3 (bispecific antibody, human IgG1, kappa)
heavy: EVQLVESGGGLVQPGGSLRLSCAASGFTFTDYTMDWVRQAPGKGLEWVADVNPNSGGSIYNQRFKGRFTLSVDRSKNTLYLQMNSLRAEDTAVYYCARNLGPSFYFDYWGQGTLVTVSS[left out - human IgG1 constant region]GGGAGGGGAGGGGAGGGGA[left out - about 120 residues]
light: DIQMTQSPSSLSASVGDRVTITCKASQDVSIGVAWYQQKPGKAPKLLIYSASYRYTGVPSRFSGSGSGTDFTLTISSLQPEDFATYYCQQYYIYPYTFGQGTKVEIKRTVAAPSVFIFPPSDEQLKSGTASVVCLLNNFYPREAKVQWKVDNALQSGNSQESVTEQDSKDSTYSLSSTLTLSKADYEKHKVYACEVTHQGLSSPVTKSFNRGEC
notes: also called HER2×4-1BB-3; HER2 × 4-1BB-3
